Measured values published in paper PMC5427921, “PRL3 phosphatase active site is required for binding the putative magnesium transporter CNNM3” (Scientific Reports, 2017).

B1: PRL3 C49A (enzyme)
chain: not shown
notes: N-terminal extension Gly-Ser-His left after thrombin cleavage of the His tag; PRL3, human, […], point mutant; not shown: His6, N-terminal, cleaved
B2: PRL3 C49S (enzyme)
chain: not shown
notes: as for B1
B3: PRL3 C104A (enzyme)
chain: not shown
notes: N-terminal extension Gly-Ser-His left after thrombin cleavage of the His tag; PRL3, human, […], catalytic cysteine mutated to alanine; Used in ITC and crystallised with the CNNM3 CBS-pair domain; also called C104A mutant; not shown: His6, N-terminal, cleaved
B4: PRL3 C104S (enzyme)
chain: not shown
notes: N-terminal extension Gly-Ser-His left after thrombin cleavage of the His tag; PRL3, human, […], point mutant; also called C104S mutant; not shown: His6, N-terminal, cleaved

Molecular target: T1, CNNM3 CBS-pair domain as a GST fusion (human, UniProt Q8NE01 309-452)
T1 construct: CBS-pair domain of human CNNM3; also called CBS-pair (Bateman) domain of CNNM3
Assay: ITC; syringe 160 μM PRL2 or PRL3, cell 16 μM CNNM3 CBS-pair domain as a GST fusion; 22 °C; 30 injections of 10 μl; fitted to a single set of identical sites
Settings: both partners purified

Chain of CNNM3 CBS-pair domain as a GST fusion (Q8NE01 309-452): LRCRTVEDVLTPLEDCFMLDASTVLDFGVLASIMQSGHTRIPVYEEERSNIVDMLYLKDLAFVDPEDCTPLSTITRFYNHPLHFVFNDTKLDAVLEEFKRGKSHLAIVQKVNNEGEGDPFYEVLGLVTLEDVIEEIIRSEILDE

| Binder | fold loss of affinity against wild-type PRL3 [fold] | fold decrease of affinity against wild-type PRL3 [fold] |
| --- | --- | --- |
| B1 | < 10 |  |
| B2 | < 10 |  |
| B3 |  | 16 |
| B4 |  | > 100 |
